Assay results published in PubChem BioAssay AID485281 (National Center for Advancing Translational Sciences (NCATS), 2010).
Out of some 350,000 compounds screened, about 260 (0.074%) were called active. Inconclusive means that the source gave no clear call. Such entries were picked first, then a sample of the others. Calls come from the whole dose curve; as a rule, active = well fitted inhibition curve with a large enough effect; inconclusive = small, poorly fitted or top-dose-only effect; inactive = no such curve, though single readings can be large or run the other way. Potencies beside an inconclusive call are fits to weak or partial responses and may not hold up.

target: Ferritin light chain (Equus caballus) (UniProt P02791); test: qHTS Assay for Identification of Novel General Anesthetics; conditions: apoferritin/1-aminoanthracene competitive binding, fluorescence; series mostly up to 77.5 µM; note: nearly all actives have a fitted effect of over 20% in size
Text: Source: NIH Chemical Genomics Center [NCGC]
Assay Submitter: Roderic Eckenhoff, University of Pennsylvania
Screening Center PI: Christopher P. Austin, NIH
Probe Development: NIH Chemical Genomics Center [NCGC]
Anesthetic development has remained a largely empirical process. There are growing concerns about the cognitive effects of known general anesthetics and acceleration of the onset of neurodegenerative disease. The compounds' toxicity and multiple specific binding targets in the mammalian brain [4] has made them less attractive as drug leads. In this assay, a GABAergic mimetic model system, apoferritin and a profluorescent 1-aminoanthracene ligand (1-AMA), was used to construct a competitive binding assay for identification of novel general anesthetics. The assay was validated for 1-AMA using other known anesthetics, such as isoflurane (CID:3763) and propofol (CID: 4943), [6].
[1] S.L. Bianchi, T. Tran, C. Liu, S. Lin, Y. Li, J.M. Keller, R.G. Eckenhoff, and M.F. Eckenhoff, Brain and behavior changes in 12-month-old Tg2576 and nontransgenic mice exposed to anesthetics. Neurobiol Aging 29 (2008) 1002-10.
[2] Z. Xie, Y. Dong, U. Maeda, R.D. Moir, W. Xia, D.J. Culley, G. Crosby, and R.E. Tanzi, The inhalation anesthetic isoflurane induces a vicious cycle of apoptosis and amyloid beta-protein accumulation. J Neurosci 27 (2007) 1247-54.
[3] P. Honegger, and J.M. Matthieu, Selective toxicity of the general anesthetic propofol for GABAergic neurons in rat brain cell cultures.
[4] M.F. Eckenhoff, K. Chan, and R.G. Eckenhoff, Multiple specific binding targets for inhaled anesthetics in the mammalian brain. J Pharmacol Exp Ther 300 (2002) 172-9.
[5] C.A. Butts, J. Xi, G. Brannigan, A.A. Saad, S.P. Venkatachalan, R.A. Pearce, M.L. Klein, R.G. Eckenhoff, and I.J. Dmochowski, Identification of a fluorescent general anesthetic, 1-aminoanthracene. Proc Natl Acad Sci U S A 106 (2009) 6501-6.
[6] W.A. Lea, J. Xi, A. Jadhav, L. Lu, C.P. Austin, A. Simeonov, and R.G. Eckenhoff, A high-throughput approach for identification of novel general anesthetics. PLoS One 4 (2009) e7150.
Three uL of reagents (free 1-AMA (50% saturated solution of 1-aminoanthracene
in PBS) in columns 3, 4 as negative control and 1-AMA/apoferritin mixture (10 uM horse-spleen apoferritin in 50% saturated 1-aminoanthracene in PBS) in columns 1, 2, 5-48) was dispensed into 1536-well Greiner black assay plates. Compounds (23 nL) were transferred via Kalypsys pintool equipped with 1,536-pin array (10 nL slotted pins, V&P Scientific, San Diego, CA). Titration of the positive control, propofol, were delivered via pin transfer from separate control plates to the 2nd column of each assay plate. The starting concentration of the control, dissolved in DMSO, was at 160 mM, followed by two-fold dilution points in duplicate, for a total of 16 concentrations. The plates were incubated for 10 min at room temperature, and then read on an EnVision HTS multilabel reader (Perkin-Elmer, Waltham, MA) (end point read, 3 min/plate) using Fura2 BFP excitation filter (380 nm, bandwidth 10 nm) and fluorescein emission filter (535 nm, bandwidth 25 nm) set. A LANCE/DELFIA dichroic mirror with a cutoff wavelength at 400 nm was used to maximize signal accuracy and strength. Vehicle-only plates, with DMSO being pin-transferred to the entire column 5-48 compound area, were inserted uniformly at the beginning and the end of each library in order to monitor for and record any shifts in the background. Activity was computed as the normalized fluorescence response relative to free 1-AMA and 1-AMA/apoferritin complex values. Concentration-effect relationships were derived by using curve fitting algorithms developed in-house (http://ncgc.nih.gov/pub/openhts/). A four parameter Hill equation was fitted to the concentration-response data by minimizing the residual error between the modeled and observed responses.
Potency is the fitted concentration of half-maximal effect; tags give direction and shape of the fitted curve.

UniProt P02791, sequence (P02791 whole entry, looked up): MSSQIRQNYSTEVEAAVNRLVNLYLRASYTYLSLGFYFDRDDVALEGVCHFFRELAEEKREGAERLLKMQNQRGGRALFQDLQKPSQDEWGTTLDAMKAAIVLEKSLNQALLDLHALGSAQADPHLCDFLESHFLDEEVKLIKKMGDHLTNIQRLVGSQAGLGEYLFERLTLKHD

SMILES | Potency
CC(=O)NNC(=O)CC(=O)Nc1nc(C23CC4CC(CC(C4)C2)C3)cs1 | inconclusive: 39.8 µM [inhibitor, single point]
CCc1ccc(-n2nc(CO)c(C(=O)NCc3ccccn3)n2)cc1 | inactive
Cc1nc(-c2ccc(NS(C)(=O)=O)cc2)cs1 | inconclusive: 28.2 µM [inhibitor, partial curve]
CCc1ccccc1N(CC)C(=O)c1cc2c(s1)-c1ccccc1OC2 | inactive
c1ccc(SCc2nc3ccccc3[nH]2)cc1 | inconclusive: 28.2 µM [inhibitor, single point]
CCN(CC)CC(=O)Nc1ccc2c(c1)Nc1ccccc1CC2 | inconclusive: 25.1 µM [inhibitor, partial curve]
COC(=O)N1N=C(c2ccccc2)CC1(O)C(F)(F)F (centres undefined) | inactive
Cc1c(OC(C)C(=O)NCc2ccccn2)ccc2c3c(c(=O)oc12)CCCC3 (centres undefined) | inconclusive: 28.2 µM [inhibitor, partial curve]
CN(Cc1ccccc1)C(=O)c1cc2c(=O)n(C)c3ccccc3c2s1 | inconclusive: 3.55 µM [inhibitor, partial curve]
CC1(C)c2ssc(=S)c2-c2ccccc2N1C(=O)CSC1=NCCS1 | inconclusive: 8.91 µM [inhibitor, partial curve, poor fit]
COCCC1CCCCN1C(=O)c1ccc2nc(Cc3ccccc3F)oc2c1 (centres undefined) | inconclusive: 39.8 µM [inhibitor, single point]
O=[N+]([O-])c1ccccc1/C=N/Nc1nccnc1Cl | inconclusive: 56.2 µM [inhibitor, single point]
O=C(c1ccc(N2CCN(C(=O)c3ccccc3Br)CC2)cc1)c1cccc(F)c1 | inactive
O=C(c1ccc2c(c1)OCO2)C1CCCN(Cc2cccc(C(F)(F)F)c2)C1 (centres undefined) | inconclusive: 25.1 µM [inhibitor, partial curve]
CCCOC(=O)C1=C(C)NC2=C(C(=O)CC(C)(C)C2)C1c1ccc(N(C)C)cc1 (centres undefined) | inconclusive: 14.1 µM [inhibitor, partial curve]
COc1cc(/C=N/NC(=O)c2ccncc2)ccc1OC(=O)c1ccc([N+](=O)[O-])cc1 | inconclusive: 3.16 µM [inhibitor, partial curve]
Cc1nc2ccn(Cc3ccco3)c(=O)c2cc1C(=O)N1CCN(c2ccccc2F)CC1 | inactive
CCOc1cc(C2NC(=S)NC(C)=C2C(=O)Nc2ccccc2)ccc1O (centres undefined) | inactive
O=c1ccn([C@@H]2O[C@H](COP(=O)(O)O)[C@@H](O)[C@H]2O)c(=O)[nH]1 | inactive
